Read counts are not given, so values of variants with three or more changes are uncertain.
B1: LINE1-full (parent)
chain: UACGUAGGUGGUUUUCCCCUGAUAGUGCUAAGGGGGCCUGGAAGUUUGGACUGGGCAGAGCUCAACACAGCGUGGCAAAGUGGCUGUGGCUAGACUGCCUCUCUGGAUUCCUCGUCACUCAGCAGGGCAUCUCUGAGAGAAAUGCC

Variants of: B1
Experiment: self-cleavage, relative activity (ratio to wild type); higher = more cleavage; in vitro, sequencing; the parent is a self-cleaving ribozyme

Row | Variant | self-cleavage
1 | U15A A79G A117G U130A | 0.48
2 | G35A U47A A94G U100C | 0.2
3 | U85A U104C U108C U109C | 0.36
4 | A42G U73C A92G | 0.71
5 | U15A C38U U102C | 0.32
6 | A43G U45C A142G | 1.25
7 | G74A U134A A140G | 0.39
8 | G10U A22G A65G | 0.26
9 | G32U A77U A78G A136G | 1.22
10 | G72A G127A A136G | 1.71
11 | U15A A43G U45C U100A U130C | 0.29
12 | U14C A43C G70A | 0.18
13 | G4A C37U U132C | 0.47
14 | A92U U115C A124G | 0
15 | C123G G127A G135U | 1.24
16 | A24G C71U A77U U115C | 0.98
17 | A30G U47C A79G | 0.71
18 | U47A C56U A78U A140G | 0.24
19 | U5A A69G U115A U119A | 0.33
20 | U26A A67C C101U | 0
21 | A31G A42G G74A | 1.17
22 | U26C U47A A65G U115C | 0.25
23 | G32A A77G U96A | 0.07
24 | U20C C28U A69G | 0

Row | Variant | self-cleavage
25 | A30U A59G G83U A129G | 0.03
26 | G35U U100C C113U | 1.49
27 | A31G U47A G105U | 1.19
28 | A2G U29C A140U A142G | 0
29 | U23A U62C U143C | 0
30 | G35A A77G A79G C84A | 0.13
31 | U13C A79G U104C | 1.53
32 | A22G U143G C146U | 1.33
33 | A24G A78G A94U U134A | 0
34 | C19U A64U A65G | 0
35 | G35A A69G U119C | 0.08
36 | G32A U85A U104A A121U | 0.17
37 | U46A G55A U100C A138G | 0.11
38 | U9A U45C U108C A138G | 0
39 | A129G U132C U143A | 1.72
40 | A57G A69U A77C | 0
41 | G36A A79U A107G U108A U134A | 0.76
42 | U13C U52C U96A | 0.06
43 | G8A U45C A65G U73G U112A | 0
44 | U39A A64G A142G | 0.29
45 | U9C C28U A77U U102A | 1.02
46 | U73C U109C U112A | 1.75
47 | U20A U73A C84A U104C | 0.15
48 | U29A A69U U132C | 0.04

Row | Variant | self-cleavage
49 | U96C C128U U132G | 0.21
50 | A24U C63U A78G | 0.49
51 | A42U A79U C111U | 1.21
52 | U29C A79G G139A | 1.22
53 | A69G U100C U132A | 0
54 | U91C U100C G139A | 1.93
55 | U9G A65G U108C | 0.26
56 | A2G U15A U26C A67G | 0.44
57 | G25C U62A U119A | 0.02
58 | A6G U13G U108C | 1.34
59 | U14C A43G A57U | 0.19
60 | U13C U26C A65G | 0
61 | U12A U39A A42G U85A U100A A107U U108A U132C | 0
62 | U1C A2G U15A G72A C90U | 0.08
63 | U15C A22G U47C | 0.92
64 | A2G A77G G89U | 0.24
65 | A2G A6G U73G | 0.55
66 | U12G U20A U29A C111A A138U | 1.97
67 | U12C U46A C56U U62C U130C | 0.05
68 | U14C U26C A142G | 0.98
69 | U13A A22G U96C U104C C118A | 0.6
70 | C61G U100C U112A | 0.09
71 | U1C G32U A129G | 0.91
72 | U47C U81C U134A | 1.97

Row | Variant | self-cleavage
73 | U9C C71A U143C | 0.57
74 | A2G U46G A94C | 0.77
75 | U29C A64G A136G | 0.48
76 | A59G U96C A141G | 0
77 | C3U U9C A24G A43G G89A | 0.26
78 | A78G A117U U130C U134A C145G | 2.27
79 | U9A U134C A138G | 1.8
80 | U20A U52C U119G | 1.31
81 | U1C U15C U115C A138G | 1
82 | G34C A50U C120U | 1.65
83 | U81A A107G U119C | 0.89
84 | G4A A22G A124G A141G | 0.99
85 | U26C C68U U100C | 0.56
86 | A31U G44U A140G | 0.97
87 | A22G U112C U115A A138G | 1.22
88 | A59U A64G A69U A129U | 0.06
89 | U12G U87C A141G | 0.6
90 | A50G A77G C133A A138U | 1.84
91 | A59G U62C G88A | 0.04
92 | U45C C71U A124U | 0.8
93 | G4A A65G U115C | 0
94 | C37U G75A A78G U100A | 0.04
95 | A31U C98G A138U A142G | 0.13
96 | A22G U73A U96A U112C A124G U134A | 0.24

Row | Variant | self-cleavage
97 | A77U A107C A121G | 0
98 | A92G U96C U119A | 0
99 | A42U U104C C120U A129U | 2.26
100 | A43G A50G C118U | 0.67
101 | U13C U91A U102C | 0.35
102 | U45C U52A A92G U109A A129U | 0.09
103 | U1C C37G U52A | 0.6
104 | U12A U46A A77G U85C A140G U143C | 0.31
105 | C61U U96C G106A U143C | 0.04
106 | U15C U29C A64C U73C | 0
107 | G114A A117U A141G A142G | 0.95
108 | A64G C90U A94U U102C | 0.04
109 | U23A A69G A141G | 0
110 | U5C U9C U12C A124G U134C | 0
111 | U39C A64G U85A C98U U102C | 0.17
112 | A22G U62G A65C A77U U132A A140G | 0
113 | A79G U132A A136G | 1.52
114 | A79G U87A U112A A117C C146U | 0.07
115 | A2G U12C A107U | 0.65
116 | U73A U100C U130A | 2.11
117 | U81A U112A A141G | 1.64
118 | U1A U47A U62C A117G | 0
119 | U13A A59U U132A | 1
120 | A67G U73C A124G | 0.57

Row | Variant | self-cleavage
121 | U5G C51U U87C C113U A138G | 0.26
122 | U12A U96A U100A A140G | 0
123 | G34A A57G U96C | 1.81
124 | U13C C19U U104A G114A | 1.35
125 | U46G A59G U62C | 0.46
126 | U29G U47G A79G | 0
127 | A2G U14C A140U | 0
128 | U14C A22G U109C | 0.62
129 | U62C U91C A107G | 0
130 | A22G U109C C113A | 1.37
131 | U5C A42G A50U U62C | 0.26
132 | A2G G10U A129U | 0.87
133 | A42G A79G U112C A138G | 1.15
134 | U62C U102C A142G | 0.03
135 | A22G U47C A64G A141U | 0
136 | U14A G53A A65G U108C | 0
137 | A22G A43G A67G A142G U143A | 0.48
138 | U1C A2G U47C U119C | 0.74
139 | U20A A79G A141G | 1.67
140 | A2G U12C G36A U104A | 0.64
141 | G36A A78G U87A A92G U100C A141U | 0.03
142 | U12C A31G A42U U132C | 0.69
143 | U12A A57U G126A A129G | 0.13
144 | U5A A50G A121G C146U | 1.84

Row | Variant | self-cleavage
145 | U9C U46C U62C | 0
146 | U87C A117C A140G | 0.42
147 | A30U G40U U73C | 1.25
148 | A42U U52A A57C A117C | 0.18
149 | U13C C38A A94U A124G | 0.28
150 | U9C G48C C71U | 0.7
151 | U23C G36A C63U A94U U143C | 0.11
152 | U14A A121G A124U | 1.41
153 | U26C A59G C63U G72U U112C A140G | 0.05
154 | A64C U81C C103A A138G | 0.21
155 | A22U U23C U96C A107G | 0.15
156 | G33A U87G U112C U115A | 0
157 | G21A U23A U62C U134C | 0.04
158 | A24U U26A C71U A129U U134C A136U | 0.41
159 | U62C U85A U115C | 0
160 | C19A A22G U47C U100C | 0.82
161 | U12A A79G U96C U119C G126A | 0
162 | U12C U81C U104C | 1.41
163 | U26A A94U U104C U108C | 0.11
164 | G7U A67U A138G | 0.21
165 | U73C A136G A138G | 2.04
166 | A59U G86A U119C | 0.07
167 | A22G A57G A136U | 0.82

Source: the RNAGym collection of RNA variant scans (doi:10.7554/elife.90254)
